We go through two molecules from patent US20240218079A1, “PLASMA KALLIKREIN ANTIBODIES AND USES THEREOF” (Astria Therapeutics, Inc., priority 2021, published 2024).

The target in data set [1] is T1, plasma kallikrein (pkal) (Homo sapiens, UniProt P03952).
T1 construct: active human plasma kallikrein (pkal, Enzyme Research Labs, South Bend, IN); purchased Enzyme Research Labs
The data set can be described thus: HMWK cleavage functional assay (bradykinin release measured by ELISA). Format: biochemical. As to conditions: for Hill slope: inhibition of HMWK cleavage by pkal. As for the experimental part:
Specifically, the ability of each antibody to inhibit pkal cleavage of its natural substrate, High Molecular Weight Kininogen (HMWK) was observed. In these experiments 10 or 30 nM pkal was preincubated with inhibitory antibodies for 1 hr at RT, then 600 nM HMWK was added and incubated for 20 minutes and the reaction was quenched by adding 0.5 μM AEBSF. The concentration of bradykinin (BK) released from HMWK as catalyzed by pKal was measured using 1/100 dilution of the reaction product in a commercial ELISA kit (Enzo, Farmingdale, NY).
The HMWK assay parameters were physiologically relevant as the concentration of high molecular weight kininogen used is the concentration that circulates in humans and the concentration of plasma kallikrein used is in the range of what has been estimated in plasma from patients with hereditary angioedema (HAE) during an attack.
The IC90 values for the antibodies were also determined to provide an index of relative potency. In HAE, the therapeutically relevant level of inhibition to prevent HAE attacks is thought to be approximately 90% inhibition of plasma kallikrein. This corresponds to a measurement referred to as IC90, which is the concentration of an agent that results in 90% inhibitory effect.
(An ELISA detects its analyte on a solid surface through an enzyme-linked reagent.)

Data set [2] can be described thus: Cynomolgus pharmacokinetic studies. Format: in vivo, cynomolgus monkey. As to conditions: male cynomolgus, IV infusion 5 mg/kg. As for the experimental part: These studies of these antibodies were conducted concurrently, but were independent studies rather than a head-to-head comparison. Cynomolgus monkeys, LM-naïve or naive, 3.0-4.0 kg, male, N=18, were purchased from Hainan Jingang Biotech Co. LTD. The antibodies were prepared in 20 mM Histidine, 150 mM NaCl, 0.01% Tween 80, pH 6.5. In these studies, all antibodies were administered to male cynomolgus monkeys (N=3) via IV infusion over 10 min at 5 mg/kg. Blood was collected from cephalic and saphenous veins into pre-cooled citrate acid tubes at each time point. […] Blood samples were put on wet ice and centrifuged at 4° C. to obtain plasma within 15 minutes of sample collection. Plasma samples were stored at approximately −70 C. Presence of each anti-plasma kallikrein antibody in the plasma samples was determined via ELISA using a plate coated with anti-human antibody as the capture agent and human IgG-heavy and light chain monkey-adsorbed antibody as the detection reagent (Southern Biotech, Cat #: 2049-01 and Bethyl, Cat #A80-319P). ELISA plates were read using a SpectraMax M2.

Data set [3] has as its system membrane proteome array. The data set can be described thus: Membrane proteome array assay. Format: binding. As to conditions: data not shown.

T1 sequence (P03952 20-390 limits assumed): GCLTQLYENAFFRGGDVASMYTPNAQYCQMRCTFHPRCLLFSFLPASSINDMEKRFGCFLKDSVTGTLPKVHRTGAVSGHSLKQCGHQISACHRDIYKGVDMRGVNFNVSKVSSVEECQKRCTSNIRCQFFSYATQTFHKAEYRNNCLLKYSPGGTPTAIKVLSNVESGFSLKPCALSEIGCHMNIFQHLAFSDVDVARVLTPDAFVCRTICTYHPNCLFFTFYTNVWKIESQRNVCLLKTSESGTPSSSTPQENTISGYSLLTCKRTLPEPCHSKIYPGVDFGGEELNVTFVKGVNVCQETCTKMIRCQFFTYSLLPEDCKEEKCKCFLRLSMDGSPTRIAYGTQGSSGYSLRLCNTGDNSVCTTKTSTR
T1 sequence (P03952 391-638 limits assumed): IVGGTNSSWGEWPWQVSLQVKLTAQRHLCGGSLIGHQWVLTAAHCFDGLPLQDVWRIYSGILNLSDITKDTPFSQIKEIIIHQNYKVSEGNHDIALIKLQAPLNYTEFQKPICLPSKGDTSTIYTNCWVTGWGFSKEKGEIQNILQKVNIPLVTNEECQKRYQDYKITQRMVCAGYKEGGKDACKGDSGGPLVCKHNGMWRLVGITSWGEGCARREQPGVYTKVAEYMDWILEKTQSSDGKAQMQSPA

B1: MAb4: MAb3 VL and VH as full length human IgG1 kappa; heavy chain SEQ ID NO: 7, light chain SEQ ID NO: 8 (antibody)
heavy: QVQLVQSGAEVKKPGSSVKVSCKASGYAFSSYWMNWVRQAPGQGLEWIGQIYPGDDDTNYNAKFQGRVTITVDKSTTTAYMELSSLRSEDTAVYFCAGSLMVTTGAPFDYWGQGTTVTVSSASTKGPSVFPLAPSSKSTSGGTAALGCLVKDYFPEPVTVSWNSGALTSGVHTFPAVLQSSGLYSLSSVVTVPSSSLGTQTYICNVNHKPSNTKVDKRV[human IgG1 Fc cut from this listing]
light: DIQMTQSPSSLSASVGDRVTITCKASQDVGIAVAWYQQKPGKAPKFLIYYASHRGWGVPDRFSGSGSGTDFTLTISSLQPEDFATYFCQQYRSYPLTFGQGTKLEIKRTVAAPSVFIFPPSDEQLKSGTASVVCLLNNFYPREAKVQWKVDNALQSGNSQESVTEQDSKDSTYSLSSTLTLSKADYEKHKVYACEVTHQGLSSPVTKSFNRGEC
With B1, in data set [1] (HMWK functional assay, 10 or 30 nM pkal preincubated 1 hr RT, 600 nM HMWK 20 min, bradykinin by ELISA), it took 30 nM to reach the 90% level (IC90). Also, the Hill slope – broadly, the slope factor of the fitted curve – in data set [1] was ~2. Also, in data set [2], the “CI (mL/day/kg) (Mean ± SD)” value worked out at 4.85 ± 0.87 mL/day/kg, the “T ½ (days) (Mean ± SD)” value is listed as 10.9 ± 0.4 days and the “Vss (mL/kg) (Mean ± SD)” value was 72.2 ± 11.1 mL/kg. In addition, in data set [3], the off target binding entry is “No off target binding was observed”.

B2: MAb4-LS: MAb4 with M428L and N434S; heavy chain SEQ ID NO: 9, light chain SEQ ID NO: 8 (antibody)
heavy: QVQLVQSGAEVKKPGSSVKVSCKASGYAFSSYWMNWVRQAPGQGLEWIGQIYPGDDDTNYNAKFQGRVTITVDKSTTTAYMELSSLRSEDTAVYFCAGSLMVTTGAPFDYWGQGTTVTVSSASTKGPSVFPLAPSSKSTSGGTAALGCLVKDYFPEPVTVSWNSGALTSGVHTFPAVLQSSGLYSLSSVVTVPSSSLGTQTYICNVNHKPSNTKVDKRV[human IgG1 Fc with changes cut from this listing]
light: B1 light
Consider B2, for which the Hill slope in data set [1] is recorded as ~2. In data set [2], the “CI (mL/day/kg) (Mean ± SD)” value is given as 3.80 ± 0.13 mL/day/kg, the “T ½ (days) (Mean ± SD)” value is 23.2 ± 3.5 days, the “Vss (mL/kg) (Mean ± SD)” value was determined as 114.4 ± 9.6 mL/kg and the “terminal half-life” value is “approximately 23 days”.
